From PubChem BioAssay AID894 (National Center for Advancing Translational Sciences (NCATS), 2007)
Several values for one entry are separate records, joined by “and”; a condition that tells them apart may be missing. Identical values can stand only once. The campaign covered roughly 150,000 compounds. About 6,500 (4.3%) were called active. Inconclusive means that the source gave no clear call. Such entries were picked first, then a sample of the others. The call rests on the fitted dose curve; in most records, active means well fitted inhibition curve with a large enough effect (not every such curve was filed as active); inconclusive means small, poorly fitted or top-dose-only effect, or another doubt; inactive means no such curve, though single readings can be large or run the other way. Potencies beside an inconclusive call are fits to weak or partial responses and may not hold up.

What follows are molecules tested against 15-hydroxyprostaglandin dehydrogenase [NAD(+)] (Homo sapiens) (UniProt P15428) (assay: qHTS Assay for Inhibitors of HPGD (15-Hydroxyprostaglandin Dehydrogenase)). Details: purified HPGD, NADH fluorescence kinetic, PGE2 substrate; activity change, negative = inhibition: hits give low values.
In short: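 NADH formation kinetics: reaction with 30 uM PGE2 and 1 mM NAD+ (final), 20 nM enzyme, Tris-HCl pH 8 with Tween 20, after 15 min compound preincubation at room temperature. Fluorescence change, last versus first of five reads.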
On the % scale 0 is the no-effect control and ±100 the full control effect; potency means the concentration at half of the fitted maximal effect; tags describe the fitted curve by direction and shape.

Sequence of UniProt P15428 (P15428 whole entry, looked up): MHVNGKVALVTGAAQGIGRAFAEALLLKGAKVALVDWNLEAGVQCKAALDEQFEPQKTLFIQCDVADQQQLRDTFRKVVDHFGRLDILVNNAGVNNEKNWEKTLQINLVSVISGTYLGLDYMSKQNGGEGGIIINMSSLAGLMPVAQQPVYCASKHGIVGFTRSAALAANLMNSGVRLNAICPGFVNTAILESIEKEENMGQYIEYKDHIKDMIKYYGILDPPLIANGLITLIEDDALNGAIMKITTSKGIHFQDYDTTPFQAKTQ

Row | SMILES | activity change, negative = inhibition | Potency
1 | CCCN1CCCC2Cc3[nH]ncc3CC21 (stereo unspecified) | inactive: -6.3% | –
2 | Brc1c(Br)c(Br)c2n[nH]nc2c1Br | – | inconclusive: 22.4 µM [inhibitor, partial curve] and inconclusive: 22.4 µM [inhibitor, single point]
3 | CCCCCCn1c(N)c(C(=O)NCCN2CCOCC2)c2nc3ccccc3nc21 | – | inconclusive: 28.2 µM [inhibitor, partial curve]
4 | CCCCC1C(=O)NC(=S)NC1=O | – | active: 12.6 µM
5 | O=C(CCS(=O)(=O)c1ccc(Br)cc1)N1CCC2(CC1)OCCO2 | inactive: 7% | –
6 | COc1ccc(C2SCC(=O)Nc3c2c(=O)[nH]n3C2CCCCCC2)cc1 (stereo unspecified) | – | inconclusive: 39.8 µM [inhibitor, partial curve, poor fit]
7 | CC(Cc1ccccc1Sc1ccc(O)cc1)N(C)C (stereo unspecified) | inactive: -4.75% | –
8 | O=C(NCc1cn2ccccc2n1)c1ccccc1 | – | inconclusive: 17.8 µM [inhibitor, partial curve]
9 | COc1ccc(-n2c(C)nc3cc(C(=O)N4CCC5(CC4)OCCO5)ccc32)cc1 | – | active: 12.6 µM
10 | C=C(c1ccccc1)P(=O)(O)O | inactive: -4.37% | –
11 | COc1cc2c(cc1OC)-c1c(OC)c(OC)cc3c1[C@H](C2)N(C)CC3 | – | inconclusive: 15.8 µM [inhibitor, partial curve]
12 | CC(C)c1ccc(C2N3CCCN23)cc1 (stereo unspecified) | – | inconclusive: 14.1 µM [inhibitor, partial curve, poor fit]
13 | S=C=Nc1cccc2ccccc12 | – | inconclusive: 7.94 µM [inhibitor, partial curve]
14 | CCOCCCn1c(N)c(C(=O)Nc2sc3c(c2C(=O)OC)CCCC3)c2nc3ccccc3nc21 | – | inconclusive: 25.1 µM [inhibitor, partial curve]
15 | CC(C)=CCCC1(C)C=Cc2c(O)c3c(c(CC=C(C)C)c2O1)OC12C(=CC4CC1C(C)(C)OC2(C/C=C(/C)C(=O)O)C4O)C3=O (stereo unspecified) | – | inconclusive: 22.4 µM [inhibitor, partial curve, poor fit]
16 | O=C1C(=O)c2ccccc2-c2ccccc21 | inactive: -10.7% | –
17 | Clc1ccc([C@@H]2C[C@H]3CC[C@@H]2N3)cn1 | inactive: 0.221% | –
18 | COc1cc(CCN)ccc1O | inactive: -16.5% | –
19 | Cc1ccc(N2C(=O)NC(=O)/C(=C\c3cnc(-c4ccccc4)nc3)C2=O)cc1 | – | inconclusive: 35.5 µM [inhibitor, single point]
20 | O=C(c1cc(C(=O)NCc2ccccc2)c(=O)n(Cc2ccccc2)c1)c1cc(Br)ccc1O | – | active: 10 µM
21 | O=c1[nH]c(=O)n(Cc2ccc(F)cc2)c(O)c1C=NCc1cccnc1 | – | active: 15.8 µM
22 | CCCCn1c(=O)c(C(=O)NCc2ccncc2)c(O)c2ccccc21 | – | inconclusive: 35.5 µM [inhibitor, single point]
23 | CCOP(=O)(OCC)c1nc(-c2cccc3ccccc23)oc1NCCc1ccc(OC)cc1 | – | inconclusive: 31.6 µM [inhibitor, partial curve]

Row | SMILES | activity change, negative = inhibition | Potency
24 | Cc1nnc2ccc(-c3cccc(C(F)(F)F)c3)nn12 | – | inconclusive: 31.6 µM [inhibitor, partial curve]
25 | COc1cc2c(cc1-c1cc3cc4ccoc4cc3oc1=O)OCO2 | inactive: -10.3% | –
26 | Cc1ccc(N2C(=O)NC(=O)/C(=C/C=C/c3ccco3)C2=O)cc1 | – | active: 7.08 µM
27 | Oc1cc(Cl)ccc1Cl | inactive: -29% | –
28 | O=C(Cc1ccccc1)Oc1cccc(N2C(=O)CCC2=O)c1 | inactive: -8.38% | –
29 | CN(C)c1cc(N)c2c(n1)CCC2 (tested in a mixture with another compound) | – | inconclusive: 20 µM [inhibitor, partial curve]
30 | CCOC(=O)C(C)Oc1cc(C)cc2oc(=O)c3c(c12)CCCC3 (stereo unspecified) | – | inconclusive: 25.1 µM [inhibitor, partial curve]
31 | Cc1c2cnn(CC(=O)N3CCC4(CC3)OCCO4)c(=O)c2c(C)n1Cc1ccc(F)cc1 | inactive: -9.77% | –
32 | O=C(Cc1ccccc1)NC(Oc1ccccc1Cl)C(Cl)(Cl)Cl (stereo unspecified) | – | inconclusive: 4.47 µM [inhibitor, full curve, poor fit]
33 | CC/C(=N\Nc1cccc2ccccc12)c1c(O)[nH]c(=O)[nH]c1=O | – | inconclusive: 15.8 µM [inhibitor, partial curve]
34 | COc1cccc(C(C#N)N2CCCCC2)c1O (stereo unspecified) | – | active: 2.24 µM
35 | CCOC(=O)c1c(N)n(CCN2CCOCC2)c2nc3ccccc3nc12 | – | inconclusive: 22.4 µM [inhibitor, partial curve]
36 | Cc1cc(C=C2C(=O)NC(=S)NC2=O)c(C)n1-c1ccc2c(c1)OCO2 | – | active: 8.91 µM
37 | COc1cc2c(cc1OC)[C@@H]1C(=O)c3ccc4oc(C(C)C)cc4c3OC1CO2 (stereo partly specified) | – | inconclusive: 15.8 µM [inhibitor, partial curve, poor fit]
38 | CC(=NCCN1CCOCC1)c1c(O)n(Cc2ccccc2)c(=O)[nH]c1=O | – | inconclusive: 31.6 µM [inhibitor, partial curve]
39 | O=C1C=CC(=O)c2c1ccc1c2ccc2ccccc21 | – | active: 11.2 µM
40 | CN(C)C(=S)SSC(=S)N(C)C | – | active: 1 µM and active: 708 nM
41 | CC(=NCc1cccnc1)c1c(O)n(-c2ccccc2)c(=O)[nH]c1=O | inactive: -2.6% | –
42 | Cc1cccc(NP(C)(=O)c2nc3c(s2)CCCC3)c1 (stereo unspecified) | – | inconclusive: 35.5 µM [inhibitor, single point]
43 | CCC(=Nc1ccc(OC)cc1OC)c1c(O)n(C)c(=O)n(C)c1=O | – | active: 35.5 µM
44 | COc1cc(OC)c(/C=C2/C(=O)Nc3ccccc32)c(OC)c1 | – | inconclusive: 20 µM [inhibitor, partial curve]
45 | CC1CC[C@@]2(NC1)O[C@@H]1C[C@H]3C4CC=C5C[C@@H](O)CC[C@]5(C)C4CC[C@]3(C)[C@H]1[C@@H]2C (stereo partly specified) | inactive: -1.06% | –
46 | COc1cc(OC2CCN(C(C)=O)CC2)ccc1C(=O)N1CCC(N2C(=O)OCc3ccccc32)CC1 | inactive: -6.45% | –
